Among the data in PubChem BioAssay AID360 (National Center for Advancing Translational Sciences (NCATS), 2006) are Potency values, retold here.

The structures appear in SMILES notation. The whole screen tested about 48,000 compounds, of which about 550 (1.1%) were called active. Not shown: some 4% with an inconclusive outcome. Rule as the data show it: active = potency below about 15 µM; inconclusive = mostly about 16 µM to 33 µM; inactive = weaker than that. The list shows a part of the results.
Potency is read from the fitted curve at half-maximal effect.

Sequence of UniProt P04062 (P04062 whole entry, looked up): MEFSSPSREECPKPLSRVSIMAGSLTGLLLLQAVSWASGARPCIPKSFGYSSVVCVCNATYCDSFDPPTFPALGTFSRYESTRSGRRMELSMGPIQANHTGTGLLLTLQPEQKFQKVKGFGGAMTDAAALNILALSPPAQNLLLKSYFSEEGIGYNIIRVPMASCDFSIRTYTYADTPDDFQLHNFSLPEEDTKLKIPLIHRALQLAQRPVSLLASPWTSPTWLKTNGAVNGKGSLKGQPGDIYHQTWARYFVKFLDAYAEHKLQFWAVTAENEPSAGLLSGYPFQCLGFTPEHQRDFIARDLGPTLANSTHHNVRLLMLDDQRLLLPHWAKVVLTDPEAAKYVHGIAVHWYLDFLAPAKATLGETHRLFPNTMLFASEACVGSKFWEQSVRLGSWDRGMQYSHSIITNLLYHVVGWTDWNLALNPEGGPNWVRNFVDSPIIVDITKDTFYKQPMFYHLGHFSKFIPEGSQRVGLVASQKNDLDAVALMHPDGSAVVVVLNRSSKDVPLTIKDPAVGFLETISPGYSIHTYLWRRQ

In this experiment the target is Lysosomal acid glucosylceramidase (Homo sapiens) (UniProt P04062). As to the kind of experiment: Glucocerebrosidase.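 Also: the screen sought inhibitors.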 To be noted: purified enzyme, resorufin glucoside fluorescence (screen aimed at inhibitors), 20 min. A digest of the protocol:
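Compounds titrated against 0.2 nM normal enzyme, 30 uM resorufin beta-D-glucopyranoside substrate, citrate/phosphate buffer with taurocholate and tween-20, pH 5.9. Reaction ran 20 min at room temperature; fluorescence (Ex 548/Em 600) gave AC50.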
Turning to `CCOC(=O)N1CCN(C(=O)COc2ccc(S(=O)(=O)NC3CCCCC3)cc2C)CC1`, the Potency is inactive: > 76.9 µM.

For `COc1ccc(NC(=O)CSc2nnc(-c3ccccc3C)n2N)cc1OC`, the Potency was inactive: > 76.9 µM.

Turning to `COC(=O)COc1ccc(S(=O)(=O)Nc2ccccc2SC)cc1`, the Potency was inactive: > 76.9 µM.

For the molecule `COc1ccccc1Oc1coc2c(CN3CCN(C)CC3)c(O)ccc2c1=O`, the Potency was inactive: > 76.9 µM.

On to `c1ccc(Cn2nnnc2CN2CCN(Cc3ccc4c(c3)OCO4)CC2)cc1`, for which the Potency is inactive: > 76.9 µM.

`O=C1CC(c2cccc(Oc3ccccc3)c2)NC(=O)N1` (centres undefined): the Potency was inactive: > 76.9 µM.

In the case of `Cc1[nH]c2ccccc2c1C(=O)CN1CCN(C2CCCCC2)CC1`, the Potency is inactive: > 76.9 µM.

As for `OCC1(CO)COC2(CCCC2)N1`, the Potency was inactive: > 76.9 µM.

Regarding `COc1ccc(C(=O)OCCNC(=O)c2c(Cl)nc3ccccn23)cc1`, the Potency was inactive: > 76.9 µM.

Regarding `Cc1sc2nc(C3CC3)nc(N3CCN(S(=O)(=O)c4ccc(F)cc4)CC3)c2c1C`, the Potency was inactive: > 76.9 µM.

With `O=C(O)c1ccc(Cl)c(S(=O)(=O)NCc2ccco2)c1`, the Potency is inactive: > 76.9 µM.

On to `O=c1oc2c(CN3CCOCC3)c(O)c(Cl)cc2c2c1CCC2`, for which the Potency is inactive: > 76.9 µM.

As for `Cc1cc(C(=O)Nc2ccc(C(=O)O)cc2)c(-c2ccccc2)o1`, the Potency is inactive: > 76.9 µM.

Take `COC(=O)CNc1c(-c2ccccn2)nc2ccc(Br)cn12`: the Potency was inactive: > 76.9 µM.

As to `COc1cc2[nH]c(=O)n(CCC(=O)N3CCc4ccccc4C3)c(=O)c2cc1OC`, the Potency was inactive: > 76.9 µM.

As for `COc1ccc(CSc2nc(N3CCOCC3)c3c(c2C#N)CC(C)(C)OC3)cc1`, the Potency was inactive: > 76.9 µM.

`O=C(C1CC1)N1CCC(c2nc(-c3ccc(S(=O)(=O)NCC4CCCO4)cc3)no2)CC1` (centres undefined): the Potency was inactive: > 76.9 µM.

`Cc1cc(C)cc(OCc2nnc(SCC(=O)c3ccc(Br)cc3)o2)c1`: the Potency is inactive: > 76.9 µM.

With `Cc1nnc(SCCCn2c(N3CCCCC3)nc3c2c(=O)[nH]c(=O)n3C)s1`, the Potency was inactive: > 76.9 µM.

In the case of `CC1=NOC2(C1)/C(=N/O)CCC/C2=N\O` (centres undefined), the Potency was inactive: > 76.9 µM.

In the case of `COc1ccc(C(=O)Nc2ccccc2NC(=O)c2ccco2)cc1OC`, the Potency was inactive: > 76.9 µM.

Take `Cc1c(C(=O)OCC(=O)N2CC(C)OC(C)C2)oc2ccc(Br)cc12` (centres undefined): the Potency is inactive: > 76.9 µM.

Take `COC(=O)c1cc(NC(=O)CC2NCCNC2=O)cc(C(=O)OC)c1` (centres undefined): the Potency is inactive: > 76.9 µM.

In the case of `CC(C)Cn1c(N)c(C(=O)NCc2cccs2)c2nc3ccccc3nc21`, the Potency is inactive: > 76.9 µM.

Turning to `COc1cc(C)nc(NCc2ccccc2)n1`, the Potency was inactive: > 76.9 µM.

Take `Cc1ccc(-n2ncc3c(NCc4ccccc4)ncnc32)cc1`: the Potency was inactive: > 76.9 µM.

For `O=C(COc1ccc(Cl)cc1)NCc1nnc(SCC(=O)N2CCCCC2)o1`, the Potency is inactive: > 76.9 µM.

Regarding `COC(=O)C1=C(CSc2nncn2C)NC(=O)NC1c1cc(C)ccc1C` (centres undefined), the Potency is inactive: > 76.9 µM.

For `Cc1nnc(NC2=NCCC2)s1`, the Potency is inactive: > 76.9 µM.

For `COc1cc(N=c2ssnc2Cl)cc(OC)c1OC`, the Potency is inactive: > 76.9 µM.

On to `S=C(NCC1CCCO1)n1nnc2ccccc21` (centres undefined), for which the Potency is inactive: > 76.9 µM.

Regarding `Nc1nc(C(=O)N2CCOCC2)nn1S(=O)(=O)c1ccccc1`, the Potency is inactive: > 76.9 µM.

Take `NCCc1nnc(SCc2c(F)cccc2Cl)o1`: the Potency entry is “inactive”.

Take `O=C(CCC1COc2ccccc2O1)NCc1ccco1` (centres undefined): the Potency was inactive: > 76.9 µM.

Take `CCCOc1ccccc1C1C(C(=O)OC)=CN(C(C)C)C=C1C(=O)OC`: the Potency was inactive: > 76.9 µM.

`COc1ccc(C2C(C#N)=C(N)Oc3c2oc(CO)cc3=O)c(OC)c1OC` (centres undefined): the Potency was inactive: > 76.9 µM.

For `CC1CCN(C(=O)c2ccc(NC(=O)C3CCCO3)cc2)CC1` (centres undefined), the Potency is inactive: > 76.9 µM.

Regarding `O=S(=O)(NCC1CCCO1)c1ccc(Oc2ccccc2)cc1` (centres undefined), the Potency is inactive: > 76.9 µM.

On to `CCOC(=O)c1c(C)n(C)c2ccc(OC(C)C(=O)OC)cc12` (centres undefined), for which the Potency is inactive: > 76.9 µM.

On to `CC1=C(C(=O)OC(C)C)C(c2cccc(F)c2)N2C(=O)C(C)SC2=N1` (centres undefined), for which the Potency is inactive: > 76.9 µM.

Turning to `CCCn1c(SCC(=O)c2ccc3c(c2)OCCO3)nnc1C(C)C`, the Potency was inactive: > 76.9 µM.

For `CCCn1c(SCC(N)=O)nnc1-c1ccco1`, the Potency is inactive: > 76.9 µM.

As for `COC(=O)c1ccc(C(=O)OC)c(NC(=O)CCc2ccc(C)o2)c1`, the Potency is inactive: > 76.9 µM.

Consider `CN(C)C(=O)CSc1nnc([C@H](Cc2c[nH]c3ccccc23)NC(=O)OC(C)(C)C)o1`, for which the Potency was inactive: > 76.9 µM.

For `CC(C)(C)n1cnc2cc(NS(=O)(=O)c3ccccc3)ccc21`, the Potency was inactive: > 76.9 µM.

Consider `CN(Cc1ccccc1)c1nc2c(c(=O)[nH]c(=O)n2C)n1Cc1ccccc1`, for which the Potency was inactive: > 76.9 µM.

On to `COc1ccccc1NC(=O)N(Cc1cc2cc(OC)c(OC)cc2[nH]c1=O)CC1CCCO1` (centres undefined), for which the Potency was inactive: > 76.9 µM.

Turning to `O=C(OCCOc1ccc(Br)cc1)c1cnccn1`, the Potency is inactive: > 76.9 µM.

As for `CCN1CCN(CCCNC(=O)C2CCCN(c3nnc(-n4cccc4)s3)C2)CC1` (centres undefined), the Potency is inactive: > 76.9 µM.

Turning to `C=C(C)CSCc1nc2ccccc2[nH]1`, the Potency was inactive: > 76.9 µM.

Turning to `Cn1cc(Cl)c(C(=O)NC2CCCCCC2)n1`, the Potency is inactive: > 76.9 µM.

In the case of `N/C(CN1CCCC1=O)=N\O`, the Potency is inactive: > 76.9 µM.

For the molecule `Cc1cc(NS(=O)(=O)c2cccs2)no1`, the Potency was inactive: > 76.9 µM.

For `CC(C)(C)c1cn(-c2ccccc2)c(=S)[nH]1`, the Potency is inactive: > 76.9 µM.

For `COc1cccc(/C(O)=C2/C(=O)C(=O)N(CCN(C)C)C2c2ccccn2)c1` (centres undefined), the Potency is inactive: > 76.9 µM.

`COc1ccc(C(c2nnnn2CC2CCCO2)N2CCN(c3ccc(F)cc3)CC2)cc1` (centres undefined): the Potency was inactive: > 76.9 µM.

Turning to `Nc1cc(=O)[nH]c(SCc2cccc(Cl)c2)n1`, the Potency is inactive: > 76.9 µM.

For `COC(=O)c1[nH]c2ccc(C)cc2c1NC(=O)CN1CCCCC1C` (centres undefined), the Potency is inactive: > 76.9 µM.

Turning to `COc1nc(OC)nc(N2CCC(C(=O)NCc3cccs3)CC2)n1`, the Potency is inactive: > 76.9 µM.
